Data from paper PMC4336329 (PLoS ONE, 2015).
In all, about 310,000 compounds went through this assay and about 2,200 (0.71%) showed an effect of 50% or more. The effect is printed as a negative number. Some of the results follow.

What follows are molecules tested against human ether-à-go-go-related gene (hERG) potassium channel (human, UniProt Q12809) (assay: primary screen, population patch clamp on CHO cells stably expressing hERG).
Chain of human ether-à-go-go-related gene (hERG) potassium channel (Q12809 whole entry, looked up): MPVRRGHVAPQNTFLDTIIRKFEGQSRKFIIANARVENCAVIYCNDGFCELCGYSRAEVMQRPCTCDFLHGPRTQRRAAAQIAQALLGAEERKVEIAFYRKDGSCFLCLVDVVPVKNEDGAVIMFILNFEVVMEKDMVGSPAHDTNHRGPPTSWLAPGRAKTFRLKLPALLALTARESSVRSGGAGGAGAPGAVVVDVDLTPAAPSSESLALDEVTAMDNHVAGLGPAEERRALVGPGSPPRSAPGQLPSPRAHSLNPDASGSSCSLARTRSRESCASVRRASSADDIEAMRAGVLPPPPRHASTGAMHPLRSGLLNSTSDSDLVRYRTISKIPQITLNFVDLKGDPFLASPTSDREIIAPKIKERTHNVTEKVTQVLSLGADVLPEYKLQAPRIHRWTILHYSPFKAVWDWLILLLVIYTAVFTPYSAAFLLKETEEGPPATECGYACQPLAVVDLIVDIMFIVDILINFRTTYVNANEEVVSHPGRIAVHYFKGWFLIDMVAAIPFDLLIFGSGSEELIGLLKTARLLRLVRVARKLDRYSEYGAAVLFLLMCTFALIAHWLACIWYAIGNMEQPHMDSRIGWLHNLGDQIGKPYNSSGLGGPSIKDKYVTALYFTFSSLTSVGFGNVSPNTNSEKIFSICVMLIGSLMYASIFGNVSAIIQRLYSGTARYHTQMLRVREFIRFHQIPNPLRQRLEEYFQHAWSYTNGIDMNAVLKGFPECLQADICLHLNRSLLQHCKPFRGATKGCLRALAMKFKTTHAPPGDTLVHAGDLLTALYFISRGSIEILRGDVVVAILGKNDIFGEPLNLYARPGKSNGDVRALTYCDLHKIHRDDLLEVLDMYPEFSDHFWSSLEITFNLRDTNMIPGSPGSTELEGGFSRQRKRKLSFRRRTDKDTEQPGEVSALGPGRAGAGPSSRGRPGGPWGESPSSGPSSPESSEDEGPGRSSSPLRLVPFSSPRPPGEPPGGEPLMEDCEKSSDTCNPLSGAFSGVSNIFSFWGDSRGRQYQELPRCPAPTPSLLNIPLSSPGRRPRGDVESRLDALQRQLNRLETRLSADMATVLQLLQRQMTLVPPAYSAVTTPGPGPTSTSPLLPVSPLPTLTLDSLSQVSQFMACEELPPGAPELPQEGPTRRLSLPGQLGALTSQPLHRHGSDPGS

First: Cc1ccc2c(C)ccc(O)c2n1
Second: COc1ccc(C(C)=O)cc1COC(=O)c1cc(C)nc2ccccc12
The “hERG current change (%, negative = inhibition) at 1uM” value of the first is lower: 11.6% for the first, 16.9% for the second.

Compared with `Cc1ccc(C(=O)NCC(=O)NCC(c2cccs2)N2CCOCC2)cc1C` (centres unmarked), `COc1ccccc1CCNC(=O)Cc1cccs1` is higher in “hERG current change (%, negative = inhibition) at 1uM” value: -1.02% for the first, 5.49% for the second.

Compared with `Cc1cc(=O)[nH]c2nnnn12`, `O=C(O)c1cc2c([nH]c1=O)CCCC2` is higher in “hERG current change (%, negative = inhibition) at 1uM” value: 9.97% for the first, 11.6% for the second.

First: CCOc1ccc2[nH]c(=O)c(CN(CCCN3CCOCC3)Cc3nnnn3Cc3ccc(OC)cc3)cc2c1
Second: CCN(CC)c1ccc(CNc2nc3ccccc3n2CCN2CCOCC2)cc1
The “hERG current change (%, negative = inhibition) at 1uM” value of the first is higher: 6.01% for the first, -76.1% for the second.

First: CC(=NCc1ccco1)c1c(C(F)(F)F)[nH]n(-c2nc3ccccc3s2)c1=O
Second: CCC(=NCc1cccnc1)c1c(O)n(-c2ccccc2)c(=O)[nH]c1=O
The “hERG current change (%, negative = inhibition) at 1uM” value of the first is lower: 1.02% for the first, 1.32% for the second.

First: COc1ccc(OC)c(S(=O)(=O)N2c3cc(F)ccc3CCC2C)c1 (centres unmarked)
Second: COc1ccc(-n2ccnc2SCC(=O)NCc2ccco2)c(OC)c1
The “hERG current change (%, negative = inhibition) at 1uM” value of the first is higher: 11.8% for the first, 6.29% for the second.

First: O=C(O)CN1C(=O)/C(=C\c2ccccc2OCc2ccc(Cl)cc2)SC1=S
Second: O=C(O)CSc1cc(NS(=O)(=O)c2ccc(Br)cc2)c2ccccc2c1O
The “hERG current change (%, negative = inhibition) at 1uM” value of the first is higher: 17.7% for the first, 11.8% for the second.

Compared with `N#CC1=C(N)Oc2cc3ccccc3cc2C1c1cccs1` (centres unmarked), `CCN(Cc1cc(=O)n2ccsc2n1)c1cccc2ccccc12` is lower in “hERG current change (%, negative = inhibition) at 1uM” value: 15.5% for the first, 13.1% for the second.

Compared with `Cc1ccc(C(=O)Nc2nnc(S(=O)(=O)N3CCCCCC3)s2)cc1`, `CN1CCN(S(=O)(=O)c2ccc(NC(=O)c3ccccc3Cl)cc2)CC1` is higher in “hERG current change (%, negative = inhibition) at 1uM” value: 4.28% for the first, 13.2% for the second.

Compared with `O=C(CSc1nc2[nH]ncc2c(=O)[nH]1)NCc1ccc(F)cc1`, `Cc1noc(C)c1COc1ccc(C(=O)NCCc2ccc(F)cc2)cc1` is higher in “hERG current change (%, negative = inhibition) at 1uM” value: 13.2% for the first, 17.2% for the second.

First: Cn1c(N)c(C(=O)CSc2nc3ccccc3[nH]2)c(=O)n(C)c1=O
Second: Cn1c(CCCCCN)nc2ccccc21
The “hERG current change (%, negative = inhibition) at 1uM” value of the first is lower: 5.76% for the first, 18.3% for the second.

Going from `O=C(C1CCC(=O)N(C2CCCC2)C1)N1CCN(c2ccc(Cl)cc2)CC1` (centres unmarked) to `COc1cccc(N2CCN(C3CC(=O)N(c4ccc(Cl)cc4)C3=O)CC2)c1` (centres unmarked), the “hERG current change (%, negative = inhibition) at 1uM” value rises from -15.6% to -9.45%.

Going from `COc1ccccc1NC(=O)Nc1cccc(NC(C)=O)c1` to `O=C(CNC(=O)c1ccccc1)Nc1ccc(Br)cc1C(=O)c1ccccc1`, the “hERG current change (%, negative = inhibition) at 1uM” value falls from 12% to 3.35%.

Compared with `O=S(=O)(Nc1ccon1)c1ccc(Br)cc1`, `CCCCCC(=O)Nc1cccc(S(=O)(=O)NC2=NCCC2)c1` is higher in “hERG current change (%, negative = inhibition) at 1uM” value: 14% for the first, 14.8% for the second.

Going from `Cc1cccc(-c2nc(C#N)c(N3CCCCCC3)o2)c1` to `Cc1cccc(NC(=S)N2CCn3cccc3C2c2cccnc2)c1` (centres unmarked), the “hERG current change (%, negative = inhibition) at 1uM” value falls from 10.7% to -0.473%.

First: CCOC(=O)C1=C(C)Nc2ncnn2C1c1ccc(N(C)C)cc1 (centres unmarked)
Second: CCOC(=O)c1ccccc1-n1c(C)cc(C2N=C(N)Nc3nc4ccccc4n32)c1C (centres unmarked)
The “hERG current change (%, negative = inhibition) at 1uM” value of the first is lower: 0.518% for the first, 5.83% for the second.

First: C[C@]12CC[C@@H]3c4ccc(O[C@@H]5O[C@H](C(=O)[O-])[C@@H](O)[C@H](O)[C@H]5O)cc4CC[C@H]3[C@@H]1C[C@@H](O)[C@@H]2O.[Na+]
Second: CC(=O)C1C(c2ccccc2OC(F)F)NC(=O)NC1(O)C(F)(F)F (centres unmarked)
The “hERG current change (%, negative = inhibition) at 1uM” value of the first is higher: 18% for the first, 9.23% for the second.

First: COc1cccc(CNC(=O)Cn2nc(C)c3c(C)n(-c4ccc(C)cc4)nc3c2=O)c1OC
Second: COc1cccc(CNC(=O)Cn2ccc([N+](=O)[O-])n2)c1
The “hERG current change (%, negative = inhibition) at 1uM” value of the first is higher: 18% for the first, 16.9% for the second.

First: Cc1c(CC(=O)O)c(=O)oc2c(C)c(OCc3ccc(F)cc3Cl)ccc12
Second: CCCCCN(C(=O)CCC(=O)OCc1cc(C(C)=O)ccc1OC)c1c(N)n(CCCC)c(=O)[nH]c1=O
The “hERG current change (%, negative = inhibition) at 1uM” value of the first is higher: 13.6% for the first, -11.7% for the second.

Going from `COc1ccccc1CN1CCNC(=O)C1CC(=O)N(C)Cc1nc(C)cs1` (centres unmarked) to `Cc1csc(NC(=O)C2CCCN(S(=O)(=O)c3cnc[nH]3)C2)n1` (centres unmarked), the “hERG current change (%, negative = inhibition) at 1uM” value rises from 17.2% to 24%.

Going from `CC(OC(=O)CC1CCCCC1)C(=O)Nc1ccc(F)cc1` (centres unmarked) to `O=C(CSc1ccc(F)cc1)Nc1ccccc1N1CCOCC1`, the “hERG current change (%, negative = inhibition) at 1uM” value falls from 9.09% to 8.17%.

First: Cc1cccc(Nc2nnc(SCC(=O)c3ccc(O)cc3O)s2)c1
Second: CCN(CC)c1ccc(NC(=O)c2ccc(=O)[nH]c2)cc1S(=O)(=O)Nc1ccc(OC)cc1
The “hERG current change (%, negative = inhibition) at 1uM” value of the first is lower: -5.82% for the first, 5.38% for the second.
